Test results from article PMC7819943, “Rice protein-binding microarrays: a tool to detect cis-acting elements near promoter regions in rice”.
The list shows a part of the results.

The sequences below were run against T1, OsWOX13 (Oryza sativa, UniProt Q5QMM3 1-267) (assay: protein-binding microarray (RPBM); PBS, 2% BSA, 51.3 ng/ul salmon testes DNA, 50 uM zinc acetate, 200 nM TF, 25 C, 1 h; high values mean tight binding). Settings: protein: recombinant; tags: N-terminal polyhistidine and DsRed monomer fusion (pET32a); label: CyDye5-dUTP incorporated in the synthesized complementary strand; 3' TTTTT single-stranded linker to array surface; dsDNA, one strand shown.
T1 sequence: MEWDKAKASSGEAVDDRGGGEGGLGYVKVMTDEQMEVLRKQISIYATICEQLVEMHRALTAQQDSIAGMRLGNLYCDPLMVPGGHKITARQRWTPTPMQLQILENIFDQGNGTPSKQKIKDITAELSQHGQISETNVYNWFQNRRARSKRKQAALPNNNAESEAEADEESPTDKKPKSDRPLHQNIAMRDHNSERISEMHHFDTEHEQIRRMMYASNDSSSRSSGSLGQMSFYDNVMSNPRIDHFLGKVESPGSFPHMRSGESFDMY
Method in brief: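 Transcription factors, each fused N-terminally to a polyhistidine tag and DsRed, were expressed in E. coli BL21-CodonPlus and purified on Ni–NTA. A custom Agilent array was made double-stranded by primer extension with Cy5-dUTP and blocked with 2% BSA. It was incubated with 200 nM protein in PBS, 2% BSA, salmon testes DNA and 50 µM zinc acetate at 25 °C for 1 h, then washed. The binding signal is per-feature fluorescence intensity (arbitrary units) read on an Axon 4000B scanner.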

Sequence | binding signal
CTATGATATACGTAAGGGTAAATTGGACAATTCATCATAACGGAGTCACCTAGTGCAG | 4470 fluorescence intensity (a.u.)
GAGAACTAATTAATCTTATAGGCAAAGGGTTAACAGAAGCCGGAGTCACCTAGTGCAG | 12400 fluorescence intensity (a.u.)
TTAATTAATTATCTCCGATACATCCTGCGGCGATTTTCGTCGGAGTCACCTAGTGCAG | 50500 fluorescence intensity (a.u.)
GATAGATAGATTTAATTTTGATAATGCATAGAGATATTGCCGGAGTCACCTAGTGCAG | 19200 fluorescence intensity (a.u.)
GATGATGATGATGATATGGATATTCATTGGCATAGTTGTGCGGAGTCACCTAGTGCAG | 15100 fluorescence intensity (a.u.)
GCTTTAAAATGTTAAATTTATCCATTTATCATGTTTATAACGGAGTCACCTAGTGCAG | 8220 fluorescence intensity (a.u.)
AGTAATTGACTCGACCGCGAGCGACGTCGATCGATCTGTCCGGAGTCACCTAGTGCAG | 34700 fluorescence intensity (a.u.)
AATGAATTCAAGAAAATTAAATTTCACAACATTACACTTCCGGAGTCACCTAGTGCAG | 3760 fluorescence intensity (a.u.)
AATAACAAATTTGACTTGATAAATGAGATGGAGAGTTGGCCGGAGTCACCTAGTGCAG | 29100 fluorescence intensity (a.u.)
AAGGGAAAATTGACCACATTCATCTGACAGTGGACTGCTTCGGAGTCACCTAGTGCAG | 7940 fluorescence intensity (a.u.)
AAAGTTACATATTGATTACCTATTGTAAATTGCCATGATCCGGAGTCACCTAGTGCAG | 14700 fluorescence intensity (a.u.)
AGGTCATTAATGAAAACGGATGGCTGAGATTTATTTAGGTCGGAGTCACCTAGTGCAG | 3800 fluorescence intensity (a.u.)
GAACCCTAACTGCGCCATCACATCGATCTACCTCCCCTTACGGAGTCACCTAGTGCAG | 5060 fluorescence intensity (a.u.)
TTCTTCAAATTGACTTAGAGTTTTCCAGATCCCTGAGAAGCGGAGTCACCTAGTGCAG | 4830 fluorescence intensity (a.u.)
TTATAATTAGTATTTTCATTGTTGTTAGATGATAAAACATCGGAGTCACCTAGTGCAG | 17500 fluorescence intensity (a.u.)
ACAGTGTAATTACACTACGATTATACTATAATTACATCTGCGGAGTCACCTAGTGCAG | 20200 fluorescence intensity (a.u.)
ACCTGAATGATTTCTACCATGGAAAAGCCATTAAAGAGGTCGGAGTCACCTAGTGCAG | 20100 fluorescence intensity (a.u.)
TACCTAATATAAGTAAATTGGTTCTCGACCCGGAATAAATCGGAGTCACCTAGTGCAG | 3180 fluorescence intensity (a.u.)
CTATTTAGACACAACATGTTAACATGCTAATTTTGTTGGTCGGAGTCACCTAGTGCAG | 8370 fluorescence intensity (a.u.)
CGACGAATGGAAAATTTCTAATTATTTTCTAAAGTAGGCTCGGAGTCACCTAGTGCAG | 3770 fluorescence intensity (a.u.)
ATAGGGACAATTTCACTGATTGCGAGGTCTGCCCAAGTCCCGGAGTCACCTAGTGCAG | 11700 fluorescence intensity (a.u.)

Sequence | binding signal
CCAAAATTGCAATTAGCCCCTTGCCGCCCTCTGTATGGGCCGGAGTCACCTAGTGCAG | 28400 fluorescence intensity (a.u.)
ACACATGATTGCATTGACCATTACAAACCAAACAATTCGACGGAGTCACCTAGTGCAG | 35000 fluorescence intensity (a.u.)
GAGAGAGAGATCAGCACATGATTGATTAAATATTAGCTTACGGAGTCACCTAGTGCAG | 19100 fluorescence intensity (a.u.)
TACCTTAATTTATTGATTGCACTCTTGTTCTCACACGGTTCGGAGTCACCTAGTGCAG | 53200 fluorescence intensity (a.u.)
TTTTACATTGATAATTTGAAACCATTTCACGTTTATGTGTCGGAGTCACCTAGTGCAG | 11100 fluorescence intensity (a.u.)
TAATAATTATTATTTGTGCTCTGAAAATTCCACTAAAATTCGGAGTCACCTAGTGCAG | 10900 fluorescence intensity (a.u.)
CCCATGCAAAATCTAAACAAATTTAGCGGCTGATTAGTTACGGAGTCACCTAGTGCAG | 5100 fluorescence intensity (a.u.)
CTCCTAATTAACGCAATTGACACTGGGCCACAGATCAAAGCGGAGTCACCTAGTGCAG | 32400 fluorescence intensity (a.u.)
CTAGCTAATTAAGAGCTGTCCACACCATGCATCCGTCCGCCGGAGTCACCTAGTGCAG | 11200 fluorescence intensity (a.u.)
CTACAGTTTGTGATTTGTCTGATCATGACAAAGGTCTACACGGAGTCACCTAGTGCAG | 8870 fluorescence intensity (a.u.)
CACCAGTTAAACTGTTAAATGAGCCCATTGTGAAATCTGTCGGAGTCACCTAGTGCAG | 8770 fluorescence intensity (a.u.)
GGAATAGATTAAATCATTATATGTCTATAATCTCAACAATCGGAGTCACCTAGTGCAG | 24500 fluorescence intensity (a.u.)
TCTTCAATTAATTAAACAAGTCGATCACACACGCATCACTCGGAGTCACCTAGTGCAG | 27700 fluorescence intensity (a.u.)
TCTTAACAAGGTGATAGTGATTTGCGCACAACTTGCTTGACGGAGTCACCTAGTGCAG | 6410 fluorescence intensity (a.u.)
TAATTATTAATATTTAATTAATTATATGTACTAATGAGTTCGGAGTCACCTAGTGCAG | 34200 fluorescence intensity (a.u.)
GCTTGTCAATCATATCATCATCGTTCATATCATTATTCTACGGAGTCACCTAGTGCAG | 17600 fluorescence intensity (a.u.)
ACATTGATAGAAACAGCACAGGAAGTTCTGAGTCAGGCCCCGGAGTCACCTAGTGCAG | 26300 fluorescence intensity (a.u.)
ACCTGTAAATTCGAAATTGACATCGAAGCGCAAAGCATCCCGGAGTCACCTAGTGCAG | 22300 fluorescence intensity (a.u.)
GGGGTTTCAATTAGCTTGCATACATATATAAGGAATGAAACGGAGTCACCTAGTGCAG | 5000 fluorescence intensity (a.u.)
TACTACTAATTTTCATTTGCCTGAAAATTATAATATCGCACGGAGTCACCTAGTGCAG | 6620 fluorescence intensity (a.u.)
ATCATGACGTAATTAGGCTCAAAAGATTCATCTCGTGATTCGGAGTCACCTAGTGCAG | 19300 fluorescence intensity (a.u.)
